Laboratory results: the supplement of paper PMC3334620
Whole data set: some 33,000 sequences, median “E-score (-0.5 to 0.5)” near -0.053, cut for the highest 2% near 0.37. The list shows a part of the results.

Target: Hap1 (UniProt P0CE41)
Assay: PBM E-score (8-mer binding enrichment) (E-score (-0.5 to 0.5)); higher = stronger / more preferred TF binding; most listed sequences are background and not binding sites
Settings: protein concentration: 200 nM; construct: GST-DNA-binding domain
Summary of the method: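 For each ungapped eight-base word taken together with its reverse complement, the Universal PBM Analysis Suite assigned an E-score. Binding data came from GST-tagged yeast transcription factors, applied at about 100-200 nM, on universal all-10-mer Agilent arrays made double-stranded by primer extension. Fluorescent anti-GST marked bound protein, and scans were normalised with masliner.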

Chain of UniProt P0CE41 (P0CE41 whole entry): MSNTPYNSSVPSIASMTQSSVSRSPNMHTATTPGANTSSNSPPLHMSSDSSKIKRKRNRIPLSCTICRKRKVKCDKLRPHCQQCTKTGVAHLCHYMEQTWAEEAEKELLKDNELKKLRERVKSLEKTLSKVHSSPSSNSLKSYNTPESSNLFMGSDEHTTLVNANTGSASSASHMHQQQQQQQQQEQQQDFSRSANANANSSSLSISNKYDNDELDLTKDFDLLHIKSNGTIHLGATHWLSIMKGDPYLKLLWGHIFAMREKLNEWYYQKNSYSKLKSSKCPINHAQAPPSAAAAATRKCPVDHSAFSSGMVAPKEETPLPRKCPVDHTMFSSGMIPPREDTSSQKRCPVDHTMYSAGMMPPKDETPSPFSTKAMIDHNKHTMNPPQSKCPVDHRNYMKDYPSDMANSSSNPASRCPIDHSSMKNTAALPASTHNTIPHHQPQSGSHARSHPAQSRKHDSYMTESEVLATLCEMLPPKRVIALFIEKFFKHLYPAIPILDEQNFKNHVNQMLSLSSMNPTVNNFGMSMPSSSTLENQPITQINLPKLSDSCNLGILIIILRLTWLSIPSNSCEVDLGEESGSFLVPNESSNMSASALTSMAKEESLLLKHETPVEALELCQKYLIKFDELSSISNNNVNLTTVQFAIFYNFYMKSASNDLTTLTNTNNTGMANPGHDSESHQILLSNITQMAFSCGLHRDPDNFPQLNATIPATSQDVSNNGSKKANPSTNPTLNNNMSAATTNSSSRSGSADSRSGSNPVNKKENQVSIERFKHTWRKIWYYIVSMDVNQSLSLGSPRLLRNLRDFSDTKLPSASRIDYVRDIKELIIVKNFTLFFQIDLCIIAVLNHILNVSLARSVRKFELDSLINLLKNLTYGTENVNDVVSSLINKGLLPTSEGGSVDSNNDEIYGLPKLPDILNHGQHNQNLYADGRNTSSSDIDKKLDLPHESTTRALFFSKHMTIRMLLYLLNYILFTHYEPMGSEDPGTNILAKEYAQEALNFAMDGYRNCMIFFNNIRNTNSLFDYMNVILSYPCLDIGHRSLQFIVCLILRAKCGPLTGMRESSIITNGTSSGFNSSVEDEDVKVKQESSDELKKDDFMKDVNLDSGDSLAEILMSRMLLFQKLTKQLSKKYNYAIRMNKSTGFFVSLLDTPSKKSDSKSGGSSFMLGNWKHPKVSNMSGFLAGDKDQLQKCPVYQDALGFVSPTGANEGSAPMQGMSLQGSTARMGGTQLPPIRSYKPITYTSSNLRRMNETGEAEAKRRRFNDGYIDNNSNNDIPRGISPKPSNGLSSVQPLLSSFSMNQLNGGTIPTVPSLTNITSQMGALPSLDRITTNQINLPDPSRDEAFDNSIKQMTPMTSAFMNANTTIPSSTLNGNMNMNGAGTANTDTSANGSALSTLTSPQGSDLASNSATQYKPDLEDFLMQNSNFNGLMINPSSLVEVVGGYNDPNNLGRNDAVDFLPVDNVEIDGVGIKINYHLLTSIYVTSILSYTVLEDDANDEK

| Sequence | PBM E-score |
| --- | --- |
| ACTCGAAA | -0.121 |
| ACGTCCGC | 0.357 |
| TACATCTA | -0.157 |
| ACAACCGT | -0.165 |
| TGATAGCA | -0.126 |
| CTGTCCGC | 0.113 |
| ATGTAAAT | -0.0606 |
| AAATGATA | 0.0825 |
| GACTTTCA | -0.0117 |
| GACAACCC | 0.0988 |
| AGCGGATG | 0.0971 |
| ATACACGG | 0.0668 |
| CGGCACTC | 0.0678 |
| ATTCAGAA | -0.14 |
| AGAGCTAC | 0.00866 |
| CCGAAGGA | 0.288 |
| CACGATCC | 0.0112 |
| AGGGGCCC | -0.00787 |
| GCACAAGC | -0.133 |
| CTAATTAG | -0.056 |
| AAGCGCTT | 0.118 |
| CCGAGACA | 0.257 |
| CCGTATAC | 0.0873 |
| ATCCGGTG | 0.411 |
| CATGGCCC | 0.135 |

| Sequence | PBM E-score |
| --- | --- |
| CTATAGCC | 0.0206 |
| CGGTGCAC | 0.0646 |
| ACTATTCA | -0.185 |
| CGGTTCCC | 0.177 |
| GGGACAAA | 0.0637 |
| CTCCAGAC | -0.155 |
| TAGGTTAA | 0.0421 |
| CAACCGCC | 0.16 |
| CTTATGTC | 0.105 |
| TCCGTTAA | 0.408 |
| TAGAGTAA | -0.0213 |
| AAGGTTCG | 0.0812 |
| AGATCAAG | -0.109 |
| GTTGGCAA | -0.171 |
| TATGTGAA | -0.236 |
| GCCTAACC | -0.127 |
| CAAAGTCC | 0.17 |
| CAGCGCCG | 0.219 |
| CCCCTTCG | -0.0372 |
| GCACATAA | 0.073 |
| CCAGGTAC | -0.269 |
| AACCTGCC | -0.179 |
| CGGAGAAA | 0.413 |
| CAGCAGAC | -0.147 |
| CCGTGTCC | 0.226 |

| Sequence | PBM E-score |
| --- | --- |
| ACGTATCA | -0.0537 |
| CCAGGTAA | -0.0912 |
| AACTAATA | 0.186 |
| GGGAATCA | -0.0963 |
| CAAAGCCG | 0.209 |
| AAGGGACG | -0.0437 |
| ACAAAAGT | -0.134 |
| TAAAGGCA | -0.0704 |
| CGAGTAGA | -0.0709 |
| ACAAAATC | 0.0168 |
| ACTTGATG | -0.181 |
| ACCTGCGT | 0.0285 |
| CGCATACG | -0.00047 |
| CCTTAAGG | 0.103 |
| ATCAGTCC | -0.0617 |
| GGGTTGAA | -0.0933 |
| CGCTAGGA | -0.107 |
| GAAGTAGC | 0.0793 |
| AACCACAT | -0.119 |
| GATGGGGA | 0.0487 |
| GTGGCCAA | -0.236 |
| GGCCTTTA | 0.0935 |
| CATGAACG | -0.147 |
| AGTCTCAC | -0.131 |
| GGGGGCGA | -0.122 |

| Sequence | PBM E-score |
| --- | --- |
| CTGCGTAC | -0.231 |
| CCCAAGCC | 0.00674 |
| CAGCCACA | -0.12 |
| AATCGATT | -0.117 |
| CTGGCACC | -0.118 |
| ATAAGGAC | -0.0961 |
| CAACGGTA | 0.0998 |
| ACACGTGC | -0.151 |
| CACAGCAG | -0.345 |
| ACGGGAGC | 0.0123 |
| CCAGATGA | -0.11 |
| TAGGTCCA | -0.114 |
| ATTATCAC | 0.0984 |
| TATCTTAA | -0.0898 |
| AATACGTA | -0.0255 |
| ATTAGCAA | 0.00411 |
| AAAGGTTA | -0.133 |
| ACCGCCGC | 0.233 |
| ACCGCGTC | 0.107 |
| TATCGTAA | 0.141 |
| AAAAGCAG | -0.208 |
| GGTGATAC | 0.14 |
| GCATGGCA | 0.039 |
| CACCGCAC | 0.0364 |
| GCGAAACC | 0.126 |

| Sequence | PBM E-score |
| --- | --- |
| CAGCTTGG | -0.129 |
| ACGGGTAA | 0.0344 |
| CTAACCTC | -0.00528 |
| AGGCCCAT | -0.13 |
| GAGGCCCC | 0.021 |
| AAAGGAAC | 0.0896 |
| TCTATAGA | -0.183 |
| GCGCCCAA | 0.0445 |
| CCGAGAGC | 0.396 |
| GATCACAA | 0.0173 |
| ATATACAA | 0.0542 |
| TATCAAAA | -0.0714 |
| ACTACATC | -0.0278 |
| CTCGTCAC | -0.126 |
| CAACTTTA | -0.13 |
| GAAACGGC | 0.108 |
| CCAAGCAC | -0.0712 |
| GCCCGAGA | 0.391 |
| GGACGAAC | 0.278 |
| CCGAATAC | 0.365 |
| AAATAATG | 0.0355 |
| GCTAAGCA | -0.0915 |
| GTAAGATA | -0.0022 |
| ACCCTGGC | -0.146 |
| CGTTGTAA | 0.0216 |

| Sequence | PBM E-score |
| --- | --- |
| ATATGGTA | -0.134 |
| AACGTAGT | -0.279 |
| CACATTGA | -0.0713 |
| GGTGTTAA | 0.334 |
| GCCGGTCA | 0.177 |
| GCGAAACA | -0.0189 |
| ACCATTGC | -0.076 |
| CGAGTTAC | -0.0647 |
| CTCAATTC | 0.012 |
| CTCACGAG | -0.227 |
| AGAGGTTC | 0.0367 |
| ATCATGCA | -0.312 |
| GTGTGTAA | -0.199 |
| ACGATCGT | -0.0959 |
| AGAACCAC | -0.0218 |
| CCTCTTGA | -0.315 |
| GGCCTGTA | 0.0111 |
| GTGGGGAA | 0.00337 |
| AAGGCCAT | 0.112 |
| CTGCGCAC | -0.0769 |
| AAACCGTG | 0.0323 |
| ACTTTTGG | -0.00588 |
| TATCCATA | -0.0118 |
| CCTGCAGC | -0.248 |
| CCGTTACA | 0.339 |

| Sequence | PBM E-score |
| --- | --- |
| GCCGCATA | 0.234 |
| TATCGGGA | 0.393 |
| AAATAGAT | 0.104 |
| AGTTAGTG | -0.135 |
| TGCCAACA | -0.122 |
| TGTAGGAA | -0.186 |
| ATGTCCTA | -0.188 |
| ACATCCCT | -0.00826 |
| AAATACCG | 0.32 |
| CACGTCCC | -0.171 |
| AGGTTGAA | -0.139 |
| AAGAGCTG | -0.232 |
| TTATAGAA | -0.275 |
| CGCCACAG | -0.216 |
| AGGCCCAA | -0.0947 |
| CCTGTTTC | -0.183 |
| CCGAAATA | 0.351 |
| ATTGAAAG | -0.157 |
| AGCAGTCA | -0.123 |
| GGCTCATA | -0.0837 |
| CTGATAGC | -0.0461 |
| CATTCCGA | 0.294 |
